B1: Caulobacter ParB omega fusion; a variant is named by its letters at X, in order, B8GW30 (parent)
chain: MESVVVGEPGMSEGRRGLGRGLSALLGEVDAAPAQAPGEQLGGSREAPIEILQRNPDQPRRTFREEDLEDLSNSIREKGVLQPILVRPSPDTAGEYQIVAGERAWRAAQRAGLKTVPIMVRELDDLAVLEIGIIENVQRADLNVLEEALSYKVLMEKFERTQENIAQTIGKSXSHVANXMRLLXLPDEVQSYLVSGELTAXHARAIAAAADPVALAKQIIEGGLSVRETEALARKAPNLSAGKSKGGRPPRVKDTDTQALESDLSSVLGLDVSIDHRGSTGTLTITYATLEQLDDLCNRLTRGI

Whole data set: some 81,000 sequences, median “one-hybrid fitness for binding NBS DNA” near -0.1, cut for the highest 2% near 0.36. This is one part of the list. A value given as a limit tells only on which side of the number the result lay.

In the experiment the parent is B1. Description: one-hybrid fitness for binding NBS DNA (the Noc-binding site; scaled: cognate 1, non-cognate 0); higher = stronger binding. Conditions: with NBS DNA site. The gist of the method:
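Fitness is the rescaled log change in variant-to-wild-type read ratio, measured by Illumina sequencing of plasmids before and after bacterial one-hybrid selection. The scale puts cognate at 1 and non-cognate at 0. Selection of Caulobacter ParB libraries, four specificity codons randomised, took place in E. coli USO with a HIS3 reporter, site 19 bp from the promoter, over 48 hours at 37°C on M9-minus-histidine with 0.1 mM IPTG and 5 mM 3-AT.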
For the variant HFHL, the “one-hybrid fitness for binding NBS DNA” value is not above 0.2. On to PKYS, for which the “one-hybrid fitness for binding NBS DNA” value was not above 0.2. Then TVEL, with not above 0.2. With CPRV, the “one-hybrid fitness for binding NBS DNA” value was not above 0.2.

For the variant ATQE, the “one-hybrid fitness for binding NBS DNA” value is not above 0.2. The same measure for YVQC: not above 0.2; for EMDG: not above 0.2; for QQLC: not above 0.2.

As for NCTT, the “one-hybrid fitness for binding NBS DNA” value is not above 0.2. In the case of RSCC, the “one-hybrid fitness for binding NBS DNA” value is not above 0.2. The same measure for TSDA: not above 0.2; for HRRN: not above 0.2. As to VHEV, the “one-hybrid fitness for binding NBS DNA” value is not above 0.2. In the case of FLYG, the “one-hybrid fitness for binding NBS DNA” value was not above 0.2. For IRSA, the “one-hybrid fitness for binding NBS DNA” value was not above 0.2. The same measure for RYGN: not above 0.2. For the variant QTPF, the “one-hybrid fitness for binding NBS DNA” value was not above 0.2.

Turning to QQKR, the “one-hybrid fitness for binding NBS DNA” value is 1.1. Then QALN, with not above 0.2.

On to MCYG, for which the “one-hybrid fitness for binding NBS DNA” value is not above 0.2. As for WDLR, the “one-hybrid fitness for binding NBS DNA” value was not above 0.2. The same measure for SVNG: not above 0.2; for HTGV: not above 0.2. Then TDTV, with not above 0.2; and HSGD, with not above 0.2. Then HRFP, with not above 0.2; and PHPV, with not above 0.2. With FQKR, the “one-hybrid fitness for binding NBS DNA” value is not above 0.2.

PVTC: the “one-hybrid fitness for binding NBS DNA” value is not above 0.2.

As for NIQN, the “one-hybrid fitness for binding NBS DNA” value was not above 0.2.

On to HRHQ, for which the “one-hybrid fitness for binding NBS DNA” value is not above 0.2.

In the case of AGLN, the “one-hybrid fitness for binding NBS DNA” value is not above 0.2. The same measure for KLGT: not above 0.2; for SPCL: not above 0.2.

Take LGRR: the “one-hybrid fitness for binding NBS DNA” value is not above 0.2.

As to RGRR, the “one-hybrid fitness for binding NBS DNA” value was found to be 0.336. Then GWES, with not above 0.2. Then TRGW, with not above 0.2. Then VSPE, with not above 0.2; and SAWG, with not above 0.2; and NHDC, with not above 0.2.

As to SHSW, the “one-hybrid fitness for binding NBS DNA” value is not above 0.2.

As for GPLE, the “one-hybrid fitness for binding NBS DNA” value was not above 0.2.

As to YDHS, the “one-hybrid fitness for binding NBS DNA” value was not above 0.2. Then AGNN, with not above 0.2; and MTHG, with not above 0.2.

Consider PGVR, for which the “one-hybrid fitness for binding NBS DNA” value was not above 0.2. The same measure for PCCH: not above 0.2. On to CWVG, for which the “one-hybrid fitness for binding NBS DNA” value is not above 0.2. Then EWGR, with not above 0.2; and FGRR, with 0.315; and QGAM, with not above 0.2. Consider QLQR, for which the “one-hybrid fitness for binding NBS DNA” value was determined as 0.483. Regarding LAPQ, the “one-hybrid fitness for binding NBS DNA” value is not above 0.2. The same measure for RWTA: not above 0.2. Then ACHY, with not above 0.2. The same measure for KDNV: not above 0.2.

As to TTTY, the “one-hybrid fitness for binding NBS DNA” value is not above 0.2.

Take KGIE: the “one-hybrid fitness for binding NBS DNA” value is not above 0.2. As for LYRT, the “one-hybrid fitness for binding NBS DNA” value was not above 0.2. For the variant VPSS, the “one-hybrid fitness for binding NBS DNA” value is not above 0.2. The same measure for GQPC: not above 0.2.

Take IRRN: the “one-hybrid fitness for binding NBS DNA” value is not above 0.2.

For AELG, the “one-hybrid fitness for binding NBS DNA” value was not above 0.2. Turning to FPPT, the “one-hybrid fitness for binding NBS DNA” value is not above 0.2.

For KKYG, the “one-hybrid fitness for binding NBS DNA” value is not above 0.2.

On to RGWC, for which the “one-hybrid fitness for binding NBS DNA” value was not above 0.2. The same measure for EIRT: not above 0.2; for QIQD: not above 0.2; for FWYL: not above 0.2. As for QFLG, the “one-hybrid fitness for binding NBS DNA” value is not above 0.2.

DRKR: the “one-hybrid fitness for binding NBS DNA” value was found to be 0.238. As for SDLS, the “one-hybrid fitness for binding NBS DNA” value is not above 0.2. Take APNY: the “one-hybrid fitness for binding NBS DNA” value was not above 0.2.

As to LVHR, the “one-hybrid fitness for binding NBS DNA” value is not above 0.2.

In the case of LTSG, the “one-hybrid fitness for binding NBS DNA” value was not above 0.2.

(Values after a collection of fitness landscapes (doi:10.1016/j.celrep.2020.107928).)
